The values below come from the supplement of paper PMC11417369.

± gives the standard deviation of the averaged measurements. This is one part of the list.

The test system of this test is PfAP2-I AP2 domain 3 (GST-tagged). Briefly: gcPBM binding intensity (ln(normalized median fluorescence intensity)); higher = stronger DNA binding. A digest of the protocol: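 After 1 h on an Agilent 4 × 180k array of primer-extended double-stranded 36-bp intergenic genomic probes and negative controls, bound GST-tagged P. falciparum DNA-binding domains were detected with Alexa488 anti-GST antibody and scanned at 488 nm. The domains had been expressed in E. coli, and binding took place in 1× PBS with 1% milk, 0.2 mg/ml BSA, 0.5% salmon testes DNA and 0.03% Triton X-100. Binding intensity is the highest Masliner-normalised natural-log median intensity across replicate spots of either probe orientation.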
As to “ATTTGTAATTTATTCAAACACACAATTTGGACCTTT [CACACA_site1062]”, the “gcPBM binding intensity (ln)” value is 7.48 ± 0.57.
For “GAAATAAAAGATGGTTGTACACCGTTTTCTCATATA [XGTACX_site5368]” the value was 7.75 ± 0.52.
With “TACATATATGATAAAAGTACATATAAATATACATAA [XGTACX_site3804]” the figure was 7.68 ± 0.33.
With “TATATGAATAAACATTGTACGTAAATATTAACTATC [XGTACX_site543]” the figure was 7.79 ± 0.47; with “AAAAAAAATTATATATGTACTTATTAATCCTTTTAT [XGTACX_site1387]”, 7.55 ± 0.38.
Regarding “TATAATAATAATAATAATAATAATAATAATAATAAT [CACACA_negctrl_site905]”, the “gcPBM binding intensity (ln)” value was found to be 8.04 ± 0.36.
For “CGCATAAAGACAAGAACACACATATAGATTGTAGTA [CACACA_site3693]” the value was 7.47 ± 0.69; for “TTATATATTAAGAAATGTACGAAAAAAAAAATTATA [XGTACX_site3893]”, 7.78 ± 0.43; for “AAGATGATAAAATATGTACACACAGTTTATACATTT [CACACA_site9341]”, 7.7 ± 0.45.
Regarding “CACCCACCCAGACACACACACACACCCCCACCCATA [CACACA_site367]”, the “gcPBM binding intensity (ln)” value came to 8.99 ± 0.33.
In the case of “ACATTTTAAATACGATGTACTTGAGTTTTTTTTAAA [XGTACX_site5833]”, the “gcPBM binding intensity (ln)” value was determined as 7.5 ± 0.46.
As for “AATTATTTATTGAGAGTGCAACAAATTATTTCAAAT [GTGCAC_site9461]”, the “gcPBM binding intensity (ln)” value was 9.69 ± 0.23.
“TTTTTTTGCATGAGCAATAAAAAAGGCTTGTTCAAA [CACACA_negctrl_site1615]”: the “gcPBM binding intensity (ln)” value worked out at 7.56 ± 0.47.
Consider “TAAAAAATTTTCGCGTGTACGCAAGAAAAAAAAAAT [XGTACX_site3058]”, for which the “gcPBM binding intensity (ln)” value turned out to be 8.04 ± 0.72.
As for “TTTTTGCCATATTACACACACACATGGAAACCCCCT [CACACA_site4994]”, the “gcPBM binding intensity (ln)” value was determined as 9.19 ± 0.085.
For “TCTTTTAACAAATAATAAGCTAATTTATATTATTAT [GTGCAC_negctrl_site655]” the value was 7.58 ± 0.67; for “AAAAAAATAATGTATATATAAATTTATTTACATATG [GTGCAC_negctrl_site107]”, 7.42 ± 0.36.
For “TATATATTTAGTTAGTGTACAAGTTATTTAGTAGTT [XGTACX_site5133]”, the “gcPBM binding intensity (ln)” value came out at 8.04 ± 0.37.
For “CAAATAAATTAAAGGTGTACTTTTATAGTTACGACA [XGTACX_site3926]” the value was 7.74 ± 0.34.
Consider “CATATTTTCTTGTGTACACATTTATTTTATACTATA [CACACA_site6032]”, for which the “gcPBM binding intensity (ln)” value came to 8.88 ± 0.19.
With “TAAAAAATAAGATATACACACATATATTTATTTATA [CACACA_site7158]” the figure was 7.33 ± 0.38.
For “AAATATTTAAATATTATGTATGATTATATATATATA [CACACA_negctrl_site590]” the value was 9.04 ± 0.085.
For “AAATAAATAAATAAATGTACACATATATATATATAT [XGTACX_site7787]” the value was 9.36 ± 0.57.
For the sequence “TCAATAAGATTATAAAGTACTTTTGAAGATATTATA [XGTACX_site7489]”, the “gcPBM binding intensity (ln)” value was determined as 7.54 ± 0.38.
Regarding “TTTCTTATTTTTTTCACACACTAAACATTTCAAATG [CACACA_site5259]”, the “gcPBM binding intensity (ln)” value stood at 8.03 ± 0.67.
For “AAAGAGAACATAAGTACACACATGTTCTTTTAGTAA [CACACA_site2824]” the value was 7.71 ± 0.13.
With “ATAAATATGTATTGCTGTACATATATATAAATTATC [XGTACX_site8411]” the figure was 7.71 ± 0.34.
For “AATAGGAAAACCTATACACACTTTAAAAAAAATATA [CACACA_site4977]” the value was 7.41 ± 0.49; for “AAAAAAAAAAAAAAAACACACAAAAGCAAGAAAAAC [CACACA_site3198]”, 8.9 ± 0.54; for “AAAGTAAAAACACATACATGCATATACACATATAAC [TGCATGCA_site341]”, 7.96 ± 0.69.
Turning to “TATAAAATTCTGACTTGTACATGTGAAAAATAATTA [XGTACX_site1396]”, the “gcPBM binding intensity (ln)” value was 7.78 ± 0.3.
With “AAAGATGGAAAAAAAAATTTGTGTGTTGAAAGATAT [GTGCAC_negctrl_site19]” the figure was 7.96 ± 0.92; with “AAAATACAATTTCTAGCACACAAAATATTATTATAA [CACACA_site9056]”, 7.78 ± 0.47; with “GCGTTGTTTTTAAAAAGTACATTTTTATATAAGTTA [XGTACX_site8780]”, 7.92 ± 0.5.
With “TATATATATATATAATGTACACATTTTTATAACTAT [XGTACX_site5714]” the figure was 9.21 ± 0.28.
With “CTTAATATATGTGGCACACATGTGGAGTCCTATTAA [CACACA_site4281]” the figure was 8.28 ± 0.45.
For “AAAAAAATATTAATGTGTACATAATAATAACATATA [XGTACX_site8319]”, the “gcPBM binding intensity (ln)” value stood at 7.75 ± 0.13.
For “AAGAGTAAAATATGGTTGCACTAAAAATATATATTT [GTGCAC_site9484]” the value was 9.36 ± 0.13; for “ATAATAAAAATATACTGTACATTTGTAAATTCTTTT [XGTACX_site4655]”, 7.5 ± 0.43.
For “TAAAACATATAAAGGTGTACGCCTTTTTGTATCAAT [XGTACX_site6064]” the value was 7.82 ± 0.39; for “TTATAGAGCTTATTCACACATACATATGTATTTATA [CACACA_site5775]”, 7.93 ± 0.52; for “GTCTACTACACTAAATGTACAAGAAAAAAGAAAAAA [XGTACX_site4660]”, 7.97 ± 0.35.
With “TATATTTGTTGACACACACACAAAAAAAAAAAAAAA [CACACA_site7211]” the figure was 8.19 ± 0.56; with “GTAGATATTTATTGAGTGCATGTTATAAAGGGAAAA [GTGCAC_site9481]”, 8.99 ± 0.29.
